# Reference: PubChem BioAssay AID1345083 (National Center for Advancing Translational Sciences (NCATS), 2018)
# About 6,200 (6.6%) of roughly 94,000 compounds were called active. Inconclusive means that the source gave no clear call. Such entries were picked first, then a sample of the others. The call rests on the fitted dose curve; in most records, active means well fitted inhibition curve with a large enough effect; inconclusive means small, poorly fitted or top-dose-only effect; inactive means flat fitted curve, though single readings scatter. Potencies of inconclusive entries are doubtful fits and often do not repeat.
# Assay: Cytotoxic Profiling in HEK 293 Cell Line of Diverse Libraries Using Quantitative High-Throughput Screening; further: nearly all actives have a fitted effect of over 60% in size
# Conditions: HEK 293 viability, ATP luminescence (CellTiter-Glo), 48-72 h; series mostly up to 115 µM
# Summary of the method: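 ATP-coupled CellTiter-Glo luminescence served as viability read-out, recorded 10 min after reagent addition at room temperature. HEK 293 cells, 250 cells/well, had been incubated with pintool-transferred compound for 48 or 72 hr at 37 degree Celsius.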
# Potency means the concentration at half of the fitted maximal effect; tags describe the fitted curve by direction and shape.
row,Structure (SMILES),Potency
1,O=[S+]1([O-])NCC2(CCCN(Cc3ccc(F)cc3)C2)Nc2ccccc21 (stereo unspecified),"inconclusive: 89.1 µM [inhibitor, partial curve, poor fit]"
2,O=C(NC1CCCN(c2ccc3nnc(C4CC4)n3n2)C1)C1CC1 (stereo unspecified),inactive
3,Cc1nnc(-c2cc(-c3cccc(N(C)C)c3)ccn2)n1Cc1ccccc1,active: 89.1 µM
4,O=C(NCc1cccc(F)c1)c1nc2c(o1)CCN(CCCc1ccccc1)CC2,"inconclusive: 112 µM [inhibitor, partial curve]"
5,CCCCS(=O)(=O)N1CCC(C2CCNC2)CC1 (stereo unspecified),inactive
6,CC(C)(C)CC(=O)N1CCCC(C(=O)Nc2cccc(-c3ccc(F)cc3)c2)C1 (stereo unspecified),"inconclusive: 25.1 µM [inhibitor, full curve, poor fit]"
7,CCN1c2cc(C(=O)NCc3cc(OC)ccc3OC)ccc2C(=O)N2CCCCC21 (stereo unspecified),"inconclusive: 89.1 µM [inhibitor, single point]"
8,Cn1ncc2c(C(=O)N3CCOCC3)cc(-c3cccc(C(F)(F)F)c3)nc21,"inconclusive: 50.1 µM [inhibitor, partial curve]"
9,O=C1NC2(CCN(C(=O)c3ccccc3F)C2)N=C1c1ccncc1 (stereo unspecified),inactive
10,C=CCN(C)C(=O)C[C@@H]1c2nc(NC(=O)c3cccs3)sc2C[C@@H]2[C@](C)(CO)[C@H](O)CC[C@]21C,"inconclusive: 89.1 µM [inhibitor, single point]"
11,COc1ccc(CN2C[C@@H]3C[C@@H](C(=O)O)N(C(C)=O)c4cccc(c43)C2=O)cc1,"inconclusive: 44.7 µM [inhibitor, single point]"
12,Cn1ncc2c(C(=O)NC3CCCC3)cc(-c3ccccc3F)nc21,"inconclusive: 100 µM [inhibitor, partial curve]"
13,Cc1nonc1CN(C)C(=O)c1coc(COc2ccc(F)cc2Cl)n1,"inconclusive: 12.6 µM [inhibitor, partial curve, poor fit]"
14,CC(C)n1cc2cc(C(=O)N3CCN(Cc4ccc5c(c4)OCO5)CC3)sc2c1,"inconclusive: 35.5 µM [inhibitor, partial curve, poor fit]"
15,O=C(c1ccc(F)cc1)N1CCCN(c2ccc3nnc(-c4ccccc4)n3n2)CC1,inactive
16,CC(C)(Cc1ccc(F)cc1)NC(=O)CC1C(=O)NCCN1Cc1ccoc1 (stereo unspecified),"inconclusive: 89.1 µM [inhibitor, partial curve, poor fit]"
17,COc1ccc(Cl)cc1C(=O)N1CCCN(c2cc(-c3ccc(Br)cc3)[nH]n2)CC1,active: 35.5 µM
18,COc1ccc(C(=O)N2CCC3(CC2)OC(=O)N(Cc2ccccc2F)C3(C)c2ccccc2)cc1 (stereo unspecified),active: 44.7 µM
19,COc1ccc(OCC2(C)COc3ccc(C(=O)Nc4cccnc4)cc3N2)cc1 (stereo unspecified),"inconclusive: 39.8 µM [inhibitor, partial curve, poor fit]"
20,N#Cc1cccnc1-c1ccc(C(=O)N2CCC(NC(=O)Cc3ccc(F)cc3)CC2)cc1,inactive
21,CC(=O)N1CCCn2nc(C)c(-c3ccccc3OCc3ccccc3)c21,"inconclusive: 112 µM [inhibitor, partial curve]"
22,O=C(c1ccc(F)cc1)N1CCc2nc(C3CC3)nc(-c3ccc(O)cc3)c2CC1,"inconclusive: 100 µM [inhibitor, single point]"

row,Structure (SMILES),Potency
1,Cc1ncsc1CN1CCC(N2C(=O)C(OCC3CC3)C23CCCCC3)CC1 (stereo unspecified),"inconclusive: 56.2 µM [inhibitor, partial curve, poor fit]"
2,COCCNC(=O)c1nc(-c2cccc(C(F)(F)F)c2)c2cnccn12,"inconclusive: 39.8 µM [inhibitor, partial curve]"
3,O=C(COc1ccc(F)cc1)N1CCN(C(=O)c2nnn3c2COC(c2ccc(Cl)cc2)C3)CC1 (stereo unspecified),"inconclusive: 17.8 µM [inhibitor, full curve, poor fit]"
4,COC(=O)c1cccc(NC(=O)c2c(OC)cc(=O)n3c2CCCC3)c1,inactive
5,CCc1ccc(Nc2nc(C)cc(=O)n2CC(=O)c2ccc(F)cc2)cc1,inactive
6,CCn1c(C2CCCN(C(=O)Nc3ccccc3F)C2)nn(C)c1=O (stereo unspecified),inactive
7,Cc1cccc(OCCc2noc(C3CCCN(C(=O)c4ccoc4)C3)n2)c1 (stereo unspecified),"inconclusive: 56.2 µM [inhibitor, partial curve, poor fit]"
8,COc1ccccc1-c1ccc(CN2C3CCC2CN(C(C)C)C3)cc1,"inconclusive: 89.1 µM [inhibitor, single point]"
9,Cc1cc(-c2cc3c(ccn3C)c(C(=O)NCc3c(C)cc(C)[nH]c3=O)n2)ccn1,"inconclusive: 112 µM [inhibitor, partial curve]"
10,Cc1ccc(NC(=O)N[C@H]2C[C@@H](c3nc(-c4ccc(F)cc4)no3)N(C)C2)cc1,inactive
11,O=C1c2c(nc(CNc3ccc(F)cc3)n2Cc2ccccc2)NCCN1CCN1CCCCC1,"inconclusive: 3.55 µM [inhibitor, full curve, poor fit]"
12,CN(C)CCCNC(=O)C1CCCN(S(=O)(=O)c2ccccc2)CCC(=O)NCC1 (stereo unspecified),inactive
13,CCN(CC)Cc1cnc2c(C(=O)N(C)C3Cc4ccccc4C3)cnn2c1,inactive
14,Cc1ccc(-c2cn3cc(C(=O)N4CCN(C)CC4)nc3s2)cc1,"inconclusive: 79.4 µM [inhibitor, partial curve, poor fit]"
15,COCc1cccc(-c2n[nH]c3c2CC(=O)N(c2ccccc2)C3)c1,"inconclusive: 100 µM [inhibitor, partial curve]"
16,Cc1ccc2nc3n(c2c1)[C@@H](CNS(=O)(=O)c1ccc(C#N)cc1)COC3,inactive
17,COc1cccc(C(=O)N2CCN(C(=O)c3nc4cccnc4n(Cc4ccccc4OC)c3=O)CC2)c1,inactive
18,O=C(Cc1c[nH]c2ccccc12)N1CCC(Cc2nc(-c3ccccc3)n[nH]2)CC1,"inconclusive: 56.2 µM [inhibitor, partial curve, poor fit]"
19,O=C(c1ccccc1)N1CCC(Oc2cccc(F)c2)C1 (stereo unspecified),"inconclusive: 39.8 µM [inhibitor, partial curve, poor fit]"
20,CCOC(=O)C1=CN(CC(=O)N(CC)c2cccc(C)c2)S(=O)(=O)N=C1C,"inconclusive: 50.1 µM [inhibitor, partial curve, poor fit]"
21,C=CCN1CC(C(=O)N2CCn3cncc3C2)CCC1=O (stereo unspecified),inactive
22,CCn1cc(S(=O)(=O)N2CCC(N3C(=O)C(OC)C34CCOCC4)CC2)cn1 (stereo unspecified),inactive

row,Structure (SMILES),Potency
1,Cc1nc2cnccn2c1C(=O)NC1CCCCC1,inactive
2,COc1ccccc1N1CCN(C(=O)C2N(C(C)C)C(=O)C23CCCC3)CC1 (stereo unspecified),"inconclusive: 31.6 µM [inhibitor, full curve, poor fit]"
3,CN1[C@@H](CCC(=O)N2CCOCC2)CNC(=O)[C@@H]2[C@H]1CCN2Cc1ncc[nH]1,inactive
4,Cc1cccc(OCC(=O)c2ccc3c(c2)N(C(C)C(=O)NCC2CCCO2)C(=O)CO3)c1C (stereo unspecified),"inconclusive: 50.1 µM [inhibitor, partial curve, poor fit]"
5,COc1cccc(-c2cccc(CCOc3cnc4c(ccn4CC(=O)O)c3)c2)c1,"inconclusive: 100 µM [inhibitor, partial curve, poor fit]"
6,CC(C)OCCCNC(=O)C1CCN(Cc2ccccc2-c2ccccc2F)CC1,"inconclusive: 50.1 µM [inhibitor, partial curve, poor fit]"
7,Cc1cn2nc(C(=O)NC(C)CCc3ccccc3)cc2c(N2CCCC2)n1 (stereo unspecified),"inconclusive: 89.1 µM [inhibitor, single point]"
8,CC1(C)[C@H](Cc2cc(COc3ccccc3)on2)C[C@@H]1NC(=O)C1CCCC1,"inconclusive: 44.7 µM [inhibitor, partial curve, poor fit]"
9,CC(C)(C)n1ccc(C(=O)N2CCC3(CCCN(C4CCCC4)C3=O)C2)c1 (stereo unspecified),"inconclusive: 39.8 µM [inhibitor, full curve, poor fit]"
10,COCCN1CCCCCC(O)c2cc(C(=O)N3CCN(c4cccc(OC)c4)CC3)ccc21 (stereo unspecified),active: 39.8 µM
11,CN1c2cc(C(=O)Nc3cccc(Cl)c3)ccc2C(=O)N2CCCCC21 (stereo unspecified),"inconclusive: 17.8 µM [inhibitor, full curve, poor fit]"
12,O=C(NCc1cccs1)c1ccc2oc(-c3ccnc(Cl)c3)nc2c1,"inconclusive: 8.91 µM [inhibitor, full curve, poor fit]"
13,COC1CCN(S(=O)(=O)N2C[C@H](c3ccc(C)o3)[C@@H](N)C2)CC1,inactive
14,Cc1ccc2c(n1)N(C)[C@H](CO)CCN(Cc1ccc(F)cc1)C2,inactive
15,O=C(c1cnccn1)N1CCN(c2cc(-c3ccccc3)[nH]n2)CC1,inactive
16,O=C(Nc1ccc2cn[nH]c2c1)c1ccc2c(c1)OCCN(c1ccccc1)C2,active: 44.7 µM
17,CCS(=O)(=O)NCC1(COc2cccc(C)n2)C[C@@H](O)[C@@H](O)C1 (stereo partly specified),inactive
18,COc1cccc(CCC(=O)Nc2ccc3ncnc(N4CCCC4)c3c2)c1,"inconclusive: 50.1 µM [inhibitor, single point]"
19,O=C(c1cccc(OC2CN(CC3CC=CCC3)C2)c1)N1CCOCC1 (stereo unspecified),inactive
20,OCc1cccc(-c2ccc3ncc(Nc4ccnc(N5CCOCC5)c4)n3n2)c1,active: 100 µM
21,CCCCc1nn(CC(=O)NC(CC)c2cccc(C)n2)c(=O)n1CC (stereo unspecified),"inconclusive: 89.1 µM [inhibitor, single point]"
22,CCCNC(=O)N1CCOc2ccc(CN3CCc4ccccc4C3)cc2C1,"inconclusive: 63.1 µM [inhibitor, partial curve, poor fit]"
